Test [1] deals with ASIC currents (ASIC1a-like) in cortical neurons. In words: Patch-clamp recording of ASIC (ASIC1a-like) currents in primary cultured mouse cortical neurons. The following applies: for effect of analogs on ASIC currents (structure-activity): 10 μM, n=3.
Test [2] relates to primary cultured mouse cortical neurons. The test is described as follows: Acidosis-induced neuronal injury, FDA/PI staining. The following applies: 1 and 10 μM, pH 6.0 for 1.5 h, MK-801 10 μM added, 24 h after acid treatment.
For test [3], the target named is T1, heteromeric ASIC1a/2a channels (UniProt P78348+Q62962).
T1 sequence (P78348 1-528): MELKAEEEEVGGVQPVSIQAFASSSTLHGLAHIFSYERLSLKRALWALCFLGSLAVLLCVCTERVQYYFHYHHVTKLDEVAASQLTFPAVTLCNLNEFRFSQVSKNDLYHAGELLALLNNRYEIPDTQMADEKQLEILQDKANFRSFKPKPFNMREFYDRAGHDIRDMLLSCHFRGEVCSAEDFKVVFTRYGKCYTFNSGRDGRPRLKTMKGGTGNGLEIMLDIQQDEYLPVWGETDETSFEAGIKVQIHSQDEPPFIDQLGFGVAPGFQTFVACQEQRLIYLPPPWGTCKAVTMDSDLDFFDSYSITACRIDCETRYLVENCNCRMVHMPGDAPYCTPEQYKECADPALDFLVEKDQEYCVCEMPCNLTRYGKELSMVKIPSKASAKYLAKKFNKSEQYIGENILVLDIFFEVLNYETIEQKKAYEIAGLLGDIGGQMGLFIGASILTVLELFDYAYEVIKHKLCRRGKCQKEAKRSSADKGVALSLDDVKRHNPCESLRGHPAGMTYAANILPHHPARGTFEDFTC
T1 sequence (Q62962 1-512): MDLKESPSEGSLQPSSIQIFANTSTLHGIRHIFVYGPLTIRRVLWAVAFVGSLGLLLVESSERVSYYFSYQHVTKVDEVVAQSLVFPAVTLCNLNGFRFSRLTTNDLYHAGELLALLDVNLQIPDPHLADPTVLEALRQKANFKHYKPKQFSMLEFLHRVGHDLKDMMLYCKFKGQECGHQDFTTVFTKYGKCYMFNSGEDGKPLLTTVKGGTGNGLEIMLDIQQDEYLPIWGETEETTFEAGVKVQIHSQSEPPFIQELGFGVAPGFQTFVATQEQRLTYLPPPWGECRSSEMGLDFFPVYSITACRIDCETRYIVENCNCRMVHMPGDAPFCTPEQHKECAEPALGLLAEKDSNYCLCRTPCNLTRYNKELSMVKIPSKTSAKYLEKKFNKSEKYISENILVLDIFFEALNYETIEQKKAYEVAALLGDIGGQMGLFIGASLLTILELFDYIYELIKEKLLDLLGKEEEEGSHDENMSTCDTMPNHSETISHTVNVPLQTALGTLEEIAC
The following applies: pH 6.

The test system of the next test is mice brain after MCAO. The settings on record: mouse, in vivo.

This note sets out measurements from US20240165129A1, “METHODS OF TREATING PAIN AND DEPRESSION” (priority 2022, published 2024).

Regarding `CC(C)CCC[C@@H](C)[C@H]1CC[C@H]2[C@@H]3C[C@@H]4O[C@@]45C[C@@H](O)CC[C@]5(C)[C@H]3CC[C@]12C` [5α,6α-epoxy-Chol, 5α,6α-epoxycholesterol], the “effect of analogs on ASIC currents (structure-activity)” value (shortened to “effect of analogs on ASIC currents”) in test [1] is “complete loss of the activity”.
As for `CC(C)CCC[C@@H](C)[C@H]1CC[C@H]2[C@@H]3C[C@H]4O[C@]45C[C@@H](O)CC[C@]5(C)[C@H]3CC[C@]12C` [5β,6β-epoxy-Chol, 5β,6β-epoxycholesterol], in test [1], the “effect of analogs on ASIC currents” value is “complete loss of the activity”.
Turning to `CC(C)CCC[C@@H](C)[C@H]1CC[C@H]2[C@@H]3C[C@@H](O)[C@@]4(O)C[C@@H](O)CC[C@]4(C)[C@H]3CC[C@]12C` [Triol, cholestane-3β, 5α, 6β-triol], in test [2], the “cell death (FDA/PI staining)” value was “inhibited the cell death in a concentration-dependent manner”. Further, the “effect on remaining currents after PcTx-1 blockage” value in test [3] was “inhibited”.
On to `CC(C)CCC[C@@H](C)[C@H]1CC[C@H]2[C@@H]3CC=C4C[C@@H](O)CC[C@]4(C)[C@H]3CC[C@]12C` [cholesterol], for which the “effect of analogs on ASIC currents” value in test [1] is given as “complete loss of the activity”.
As for “PcTx1: potent and specific inhibitor for homomeric ASIC1a and heteromeric ASIC1a/2b channels”, in test [1], the “effect of PcTx-1 on ASIC currents in the presence of Triol” value is given as “no more inhibition” and the “sensitivity of neuronal ASIC currents to PcTx1 blockade” value is recorded as “sensitive to PcTx1 blockade”. Moreover, in the test with mice brain after MCAO, the infarct volume entry was “significantly reduced”.
